Results from PubChem BioAssay (NCATS).
Where “and” joins values, the source holds several entries; their conditions need not be identical. Identical values can stand only once. Inconclusive results, whose numbers are uncertain, are shown with a selection of clear calls. For part of these data: Potencies of inconclusive entries are doubtful fits and often do not repeat. Calls of active or inactive are those of the source. Unless noted, the call rests on the fitted dose curve; in most records, active means well fitted curve in the direction sought with a large enough effect; inconclusive means small, poorly fitted or top-dose-only effect, or another doubt; inactive means no such curve, though single readings can be large; an effect the other way counts as inactive or inconclusive.

Columns and labels:
[1] = qHTS of pediatric cancer cell lines to identify multiple opportunities for drug repurposing: Primary screen for SK-N-MC cells (AID 1347093); conditions: SK-N-MC viability, CellTiter-Glo luminescence, 48 h; activity change, negative = cytotoxic: at 46 µM (top of the series); further: potency means the concentration at half of the fitted maximal effect
How it was run: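 Metabolically active cells were quantified by ATP-dependent luminescence (CellTiter-Glo, 15 min at room temperature) following 48 h treatment. Cells had been plated at 500-1,000 per well and settled for 5 h beforehand.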

[2] = qHTS of pediatric cancer cell lines to identify multiple opportunities for drug repurposing: Primary screen for Saos-2 cells (AID 1347097); conditions: Saos-2 viability, CellTiter-Glo ATP luminescence, 48 h; activity change, negative = cytotoxic: at 46 µM (top of the series); further: nearly all actives have a fitted effect of over 40% in size; further: potency means the concentration at half of the fitted maximal effect; on activity change, negative = cytotoxic: on the % scale 0 is the no-effect control and ±100 the full control effect
How it was run: (§1)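 Plated cells (500-1,000 per well, growth media) were allowed to settle for 5 hours, treated with compound dilutions for 48 hours, then lysed with CellTiter-Glo for 15 min at room temperature before luminescence reading.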

[3] = qHTS of pediatric cancer cell lines to identify multiple opportunities for drug repurposing: Primary screen for SK-N-SH cells (AID 1347098); further: nearly all actives have a fitted effect of over 65% in size; further: potency means the concentration at half of the fitted maximal effect;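 on activity change, negative = cytotoxic: DMSO served as neutral control and bortezomib at 2.3 µM as positive control; on the % scale 0 is the no-effect control and ±100 the full control effect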
How it was run: (§2)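 Cells (500-1,000/well) rested 5 h, then received compounds for 48 h; metabolically active cells were measured by CellTiter-Glo luminescence. Final concentrations spanned up to 46 µM (MIPE, 11-point) or 0.59 nM-46 µM (NPC, 8-point) in primary screens, 11-point in follow-ups.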

[4] = qHTS of pediatric cancer cell lines to identify multiple opportunities for drug repurposing: Primary screen for BT-12 cells (AID 1347101); further: nearly all actives have a fitted effect of over 25% in size; further: potency means the concentration at half of the fitted maximal effect;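 on activity change, negative = cytotoxic: plate controls were DMSO for no effect and bortezomib positive control for full effect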
How it was run: as §2

[5] = A High-Content qHTS Against Drug Library for the Identification of Small Molecules that Inhibit DYT1 Early Onset Primary Dystonia-Associated Cell Pathology (AID 1645839; calls by dose curve; further: potency means the concentration at half of the fitted maximal effect)
How it was run: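 Cells were seeded and left for 24 h, then dosed with compound alongside tetracycline induction of mutant EGFP-TorsinA. They were incubated for 48 h, fixed in 4% paraformaldehyde, permeabilized and imaged for mislocalization (%pathology) and cell count.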

[6] = target: Cytochrome P450 2D6 (Homo sapiens) (UniProt P10635); test: Cytochrome P450 family 2 subfamily D member 6 (CYP2D6) small molecule antagonists: luciferase biochemical (cell-free) qHTS assay (AID 1645840; active means well fitted curve in the direction sought with a large enough effect in the repeat runs; inconclusive means weak or mixed curves; inactive means no such curve, though single readings can be large; an effect the other way counts as inactive or inconclusive; further: nearly all actives have a fitted effect of over 55% in size; further: potency means the concentration at half of the fitted maximal effect; on activity change, negative = inhibition: on the % scale 0 is the no-effect control and ±100 the full control effect)
How it was run: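 P450-Glo CYP2D6 system: proluciferin substrate converted by enzyme to luciferin, read by luminescence proportional to activity. Enzyme-substrate mix with compound 10 min at room temperature, then NADPH regeneration 1 h before detection reagent.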

[7] = Primary qHTS for inhibitors of nuclear receptor binding SET domain protein 2 (NSD2) in an isogenic RCH-ACV NSD2 p.E1099K mutant (9B) (AID 1645876); conditions: activity change, negative = viability loss: at 44.9 µM (top of the series) unless noted; further: potency means the concentration at half of the fitted maximal effect; nearly all actives have a fitted effect of over 70% in size
[8] = Primary qHTS for inhibitors of nuclear receptor binding SET domain protein 2 (NSD2) in an RCH-ACV wild type WT cells (2C) (AID 1645877); conditions: activity change, negative = cell killing: at 44.9 µM (top of the series) unless noted; further: nearly all actives have a fitted effect of over 70% in size; further: potency means the concentration at half of the fitted maximal effect
MKL-1 = test: qHTS assay to identify novel small-molecules to repurpose for Merkel cell carcinoma treatment (AID 1296009); conditions: MCC and control cell lines, CellTiter-Glo viability, 72 h; series mostly up to 46 µM; further: nearly all actives have a fitted effect of over 60% in size; further: potency means the concentration at half of the fitted maximal effect; on activity change, negative = cytotoxicity: on the % scale 0 is the no-effect control and ±100 the full control effect
How it was run: (§3)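 Dose-response viability screen; 72 hr exposure at 37 degree celsius; CellTiter-Glo added, 10 min room temperature, luminescence read; RLUs scaled between no-cell and DMSO wells.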

MKL-2 = test: as above; conditions: MCC and control cell lines, CellTiter-Glo viability, 72 h; activity change, negative = cytotoxicity: at 46 µM (top of the series)
How it was run: as §3

UISO = test: as above; conditions: MCC and control cell lines, CellTiter-Glo viability, 72 h; series mostly up to 46 µM
How it was run: as §3

WaGa = test: as above; conditions: MCC and control cell lines, CellTiter-Glo viability, 72 h; series mostly up to 46 µM
How it was run: as §3

[9] = qHTS of pediatric cancer cell lines to identify multiple opportunities for drug repurposing: Primary screen for A673 cells (AID 1347092); conditions: A673 Ewing sarcoma viability, CellTiter-Glo ATP luminescence, 48 h; activity change, negative = cytotoxic: at 46 µM (top of the series); further: nearly all actives have a fitted effect of over 45% in size; further: potency means the concentration at half of the fitted maximal effect
How it was run: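 A673 cells (500-1,000 cells/well in growth media) were pre-incubated 5 h at 37 degrees C, then exposed to compounds for 48 h. Viability was read as CellTiter-Glo luminescence; concentration-response curves came directly from the primary screen.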

[10] = Primary qHTS for small molecule stabilizers of the endoplasmic reticulum resident proteome: Secreted ER Calcium Modulated Protein (SERCaMP) assay (AID 1508630); conditions: SH-SY5Y GLuc-SERCaMP (Gaussia luciferase released on ER calcium loss) secretion, thapsigargin, luminescence; activity change, negative = inhibition: at 38.4 µM (top of the series) unless noted; further: potency means the concentration at half of the fitted maximal effect
How it was run: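 The SH-SY5Y reporter protocol was run at 3 concentrations up to 38.3 uM (primary) or 11 concentrations (follow-up): 16 h compound, 100 nM thapsigargin for 4 h, then extracellular luciferase luminescence.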

[11] = qHTS of pediatric cancer cell lines to identify multiple opportunities for drug repurposing: Primary screen for NB-EBc1 cells (AID 1347095); further: potency means the concentration at half of the fitted maximal effect
How it was run: as §1

[12] = qHTS of pediatric cancer cell lines to identify multiple opportunities for drug repurposing: Primary screen for OHS-50 cells (AID 1347103); conditions: OHS-50 osteosarcoma viability, CellTiter-Glo luminescence, 48 h; activity change, negative = cytotoxic: at 57.3 µM (top of the series); further: nearly all actives have a fitted effect of over 40% in size; further: potency means the concentration at half of the fitted maximal effect;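 on activity change, negative = cytotoxic: plate controls were DMSO neutral control for no effect and bortezomib positive control for full effect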
How it was run: as §2

[13] = target: Cytochrome P450 2C9 (Homo sapiens) (UniProt P11712); test: Cytochrome P450 family 2 subfamily C member 9 (CYP2C9) small molecule antagonists: luciferase biochemical (cell-free) qHTS assay (AID 1645842; active means well fitted curve in the direction sought with a large enough effect in the repeat runs; inconclusive means weak or mixed curves; inactive means no such curve, though single readings can be large; an effect the other way counts as inactive or inconclusive; further: nearly all actives have a fitted effect of over 55% in size; further: potency means the concentration at half of the fitted maximal effect)
How it was run: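 P450-Glo CYP2C9 system: proluciferin substrate with enzyme in mix containing 0.4% BSA, 10 min at room temperature, then NADPH regeneration solution added and incubated 1 h at 37C. Detection reagent stopped reaction; luminescence read after 20 min as RLU.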

MCC-13 = test: qHTS assay to identify novel small-molecules to repurpose for Merkel cell carcinoma treatment (AID 1296009); conditions: MCC and control cell lines, CellTiter-Glo viability, 72 h; series mostly up to 46 µM; further: nearly all actives have a fitted effect of over 60% in size; further: potency means the concentration at half of the fitted maximal effect
How it was run: as §3

[14] = Drug repurposing screens with cells derived from glioblastoma tumor samples (AID 1345199); conditions: GBM patient neurospheres viability, ATP luminescence, 48 h; Potency: tumour line A unless noted; activity, negative = cell killing: at 46 µM (top of the series), tumour line A unless noted; further: nearly all actives have a fitted effect of over 40% in size; further: potency means the concentration at half of the fitted maximal effect
How it was run: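 Primary testing used CD133+ neurospheres from four GBM patients, seven concentrations, 48 h exposure and ATP-based viability; confirmation added three slower-growing patient lines.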

SKOV3 = test: Primary qHTS to identify gynecologic anti-cancer compounds using libraries of approved drugs and bioactive compounds (AID 1345084); conditions: Gynecologic cancer cell panel viability, ATPlite luminescence, 48 h; series mostly up to 57.5 µM; further: on the % scale 0 is the no-effect control and ±100 the full control effect; nearly all actives have a fitted effect of over 55% in size
How it was run: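 Cells, 1,000 per well, plated 16 h, then exposed 48 h at 37 C to compounds. Viability by ATPlite luminescence after 15 min at room temperature.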
Tags describe the fitted curve by direction and shape.

Sequence of UniProt P11712 (P11712 whole entry, looked up): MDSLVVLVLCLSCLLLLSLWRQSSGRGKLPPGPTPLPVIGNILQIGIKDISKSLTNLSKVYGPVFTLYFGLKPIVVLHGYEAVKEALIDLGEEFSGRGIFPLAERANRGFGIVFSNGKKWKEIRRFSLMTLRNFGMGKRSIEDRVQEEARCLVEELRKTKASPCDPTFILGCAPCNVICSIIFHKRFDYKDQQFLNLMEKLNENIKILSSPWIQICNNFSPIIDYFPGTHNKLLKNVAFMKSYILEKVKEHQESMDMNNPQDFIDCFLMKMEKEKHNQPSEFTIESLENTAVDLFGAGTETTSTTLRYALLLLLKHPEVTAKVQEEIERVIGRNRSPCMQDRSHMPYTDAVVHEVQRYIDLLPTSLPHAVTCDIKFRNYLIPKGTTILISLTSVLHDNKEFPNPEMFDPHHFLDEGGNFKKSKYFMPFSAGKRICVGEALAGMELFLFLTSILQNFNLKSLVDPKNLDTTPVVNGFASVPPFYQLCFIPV
Sequence of UniProt P10635 (P10635 whole entry, looked up): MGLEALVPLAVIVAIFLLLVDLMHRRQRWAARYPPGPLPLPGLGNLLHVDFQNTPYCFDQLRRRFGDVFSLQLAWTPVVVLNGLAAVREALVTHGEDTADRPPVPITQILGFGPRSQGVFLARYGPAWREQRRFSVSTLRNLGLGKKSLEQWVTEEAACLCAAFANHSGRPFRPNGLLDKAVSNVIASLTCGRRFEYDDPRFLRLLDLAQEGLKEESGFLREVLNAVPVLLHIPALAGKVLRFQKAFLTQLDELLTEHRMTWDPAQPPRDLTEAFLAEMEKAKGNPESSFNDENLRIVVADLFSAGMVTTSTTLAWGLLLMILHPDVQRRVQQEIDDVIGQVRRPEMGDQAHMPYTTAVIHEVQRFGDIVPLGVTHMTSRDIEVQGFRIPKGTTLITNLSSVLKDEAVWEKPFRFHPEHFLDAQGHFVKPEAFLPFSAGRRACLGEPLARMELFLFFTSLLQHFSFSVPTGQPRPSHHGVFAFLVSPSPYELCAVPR

CCOC(=O)/C=C(C)/C=C/C=C(C)/C=C/c1c(C)cc(OC)c(C)c1C
Potency [1]: inconclusive: 18.8 µM [cytotoxic, partial curve, poor fit] | Potency [2]: inactive | Potency [3]: inactive | Potency [4]: inconclusive: 15.5 µM [cytotoxic, partial curve, poor fit] | Potency [5]: inactive | Potency [6]: inconclusive: 24.5 µM [inhibitor, single point] | Potency [7]: inconclusive: 23.7 µM [inhibitor, single point] | Potency [8]: inconclusive: 29.9 µM [inhibitor, single point] | Potency (MKL-1): inconclusive: 26.6 µM [inhibitor, single point] | Potency (MKL-2): inconclusive: 33.5 µM [inhibitor, single point] | Potency (UISO): inconclusive: 33.5 µM [inhibitor, single point] | Potency (WaGa): inconclusive: 29.9 µM [inhibitor, single point]

CC(C)(C)NCC(O)COc1cccc2c1C[C@H](O)[C@H](O)C2 (stereo not given in full)
Potency [6]: inactive | Potency (MKL-1): inactive | Potency (UISO): inactive

COC(=O)c1cc(Cl)c(NC(C)=O)cc1OC
Potency [9]: inactive | Potency [10]: inconclusive: 2 µM [inhibitor, full curve, poor fit] | Potency [5]: inactive | Potency [8]: inactive | Potency (MKL-1): inactive | Potency (MKL-2): inactive | Potency (UISO): inactive

COc1ccccc1Oc1c(NS(=O)(=O)c2ccc(C(C)(C)C)cc2)nc(-c2ncccn2)nc1OCCO
Potency [11]: inconclusive: 23.7 µM [cytotoxic, single point] | Potency [12]: inactive | Potency [5]: inconclusive: 35.5 µM [inhibitor, single point] | Potency [13]: inconclusive: 27.5 µM [inhibitor, single point] | Potency [7]: inconclusive: 26.6 µM [inhibitor, partial curve, poor fit] | Potency [8]: inconclusive: 33.5 µM [inhibitor, single point] | Potency (MCC-13): inconclusive: 23.7 µM [inhibitor, single point] | Potency [14]: inactive

NC(=O)NNc1ccccc1
Potency [5]: inconclusive: 6.31 µM [inhibitor, full curve, poor fit] | Potency (MCC-13): inactive | Potency [14]: inconclusive: 0.316 µM [inhibitor, full curve]

C#CCN(C)CCCOc1ccc(Cl)cc1Cl
Potency [2]: inconclusive: 33.5 µM [cytotoxic, single point] | Potency [12]: inconclusive: 24.6 µM [cytotoxic, single point] | Potency (MKL-1): inactive | Potency (MKL-2): inactive | Potency [14]: inactive

C/C=C/C=N/NC(=O)c1ccncc1
activity change, negative = cytotoxic [9]: inconclusive: -30.7% [cytotoxic] | Potency [4]: inactive | Potency [12]: inactive | Potency [6]: inconclusive: 11 µM [inhibitor, partial curve, poor fit] | Potency [13]: inconclusive: 1.23 µM [inhibitor, full curve, poor fit] | Potency [8]: inconclusive: 33.5 µM [inhibitor, single point] | Potency (MKL-1): inconclusive: 29.9 µM [inhibitor, single point] | Potency (MKL-2): inconclusive: 26.6 µM [inhibitor, partial curve, poor fit] | Potency (UISO): inconclusive: 33.5 µM [inhibitor, partial curve, poor fit] | Potency (WaGa): inconclusive: 33.5 µM [inhibitor, single point] | Potency [14]: inconclusive: 35.5 µM [inhibitor, partial curve, poor fit]

CC1(C)OC[C@@H](COC(=O)CCc2ccc(OC[C@@H](O)CNCCNC(=O)N3CCOCC3)cc2)O1
Potency (MKL-1): inactive | Potency [14]: inconclusive: 10 µM [inhibitor, partial curve] and inconclusive: 35.5 µM [inhibitor, partial curve]

CNCc1ccccc1
Potency [9]: inactive | Potency [1]: inconclusive: 23.7 µM [cytotoxic, partial curve, poor fit] | Potency [13]: inactive | Potency [8]: inactive | Potency (MCC-13): inactive

O=C(O)Cn1cnnn1
Potency [9]: inactive | Potency [12]: inactive | Potency [10]: inconclusive: 35.5 µM [inhibitor, full curve] | Potency [5]: inactive | Potency [6]: inactive | Potency (MCC-13): inactive

CCCCCCCCCCCCCCCCOP(=O)([O-])OCC[N+](C)(C)C
Potency [9]: inconclusive: 10.6 µM [cytotoxic, partial curve] | Potency [11]: inconclusive: 15 µM [cytotoxic, partial curve] | Potency [3]: active: 13.7 µM | Potency [12]: inconclusive: 24.6 µM [cytotoxic, partial curve] | Potency [5]: inconclusive: 15.8 µM [inhibitor, partial curve, poor fit] | Potency [6]: inconclusive: 38.9 µM [inhibitor, single point] | Potency [8]: active: 11.9 µM | Potency (MKL-1): inconclusive: 21.1 µM [inhibitor, single point] | Potency (MKL-2): inconclusive: 18.8 µM [inhibitor, single point] | Potency (UISO): inconclusive: 13.3 µM [inhibitor, partial curve, poor fit] | Potency (WaGa): inconclusive: 33.5 µM [inhibitor, single point] | Potency (SKOV3): inactive | Potency [14]: inconclusive: 10 µM [inhibitor, partial curve]
